According to the RNAGym collection of RNA variant scans (doi:10.1093/nar/gkz1192):
Read counts are not given, so values of variants with three or more changes are uncertain.

B1: CPEB3 Ribozyme (parent)
chain: UAACAGGGGGCCACAGCAGAAGCGUUCACGUCGCAGCCCCUGUCAGAUUCUGGUGAAUCUGCGAAUUCUGCUGUAUAUCUC

Variants of: B1
Assay: self-cleavage, relative activity (ratio to wild type); higher = more cleavage; in vitro, sequencing
Summary of the method: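 For each CPEB3 ribozyme variant, relative activity is its cleaved/total read fraction divided by the unmutated ribozyme's. Barcoded error-prone PCR libraries were transcribed by T7 RNA polymerase (5 hours, 37°C) and held in DNase I for 15 min before an EDTA stop, with cleavage occurring throughout. Template-switching reverse transcription and Illumina sequencing were used to read the RNAs. A 5-read minimum applied, and results are the mean of three batches.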

Variant	self-cleavage
A15U A21U U72C	0.18
A15U A28C A65G U67C U80C	0.14
A15U A28G A35G A57U U67C	0.11
A15U A28G A35U	0.23
A15U A28G A56G	0.17
A15U A28G A65U G70U	0.07
A15U A28G G55U	0.18
A15U A28G U72A U78A	0.44
A15U A28U C37G	0.15
A15U A28U C40A G52A	0.19
A15U A28U U43C A57G U80A	0.28
A15U A35G A56G A57G U80C	1.26
A15U A35G C40U A57G U74C	1.27
A15U A35G G70U	0.77
A15U A35G U41C U72A	1
A15U A35G U43A U49A U60A A64U	0.41
A15U A35G U43G U49A A64G	0.08
A15U A35G U72A	1.26
A15U A35U A56U	0.18
A15U A35U U43C	0.22
A15U A35U U43C A65G U72C A75G	0.06
A15U A35U U54C U67A U78C U80C	0.09
A15U A35U U78A	0.18
A15U A45C U66C	0.13

Variant	self-cleavage
A15U A45G A65U	0.55
A15U A45G G52A A65G	0.48
A15U A45G G70A	0.09
A15U A45U U48C A56G	0.2
A15U A47G A56U U67C A75G	0.1
A15U A47G U66C G73U	0.41
A15U A56G U72A	0.58
A15U A56U U67C C68A U69C	0.09
A15U A56U U69C	0.19
A15U A57G A64U	0.14
A15U A65C U67A A75U U78G	0.1
A15U C17A A18G A20G	0.35
A15U C17A C50G	0.24
A15U C17A U41C U51A A56G	0.11
A15U C17G A21G U25C A47G U69G	0.05
A15U C17U U26C C34U U76A A77G	0.19
A15U C17U U69C U74C	0.16
A15U C23U U49C U69A	0.14
A15U C23U U54C A64U U67C	0.14
A15U C27U U31A A47G U66C	0.07
A15U C29U A64G U66C U72C	0.09
A15U C29U C32U A56U A65G	0.05
A15U C29U C40G U43C U60C	0.17
A15U C29U G52A U66C U72A A75U	0.15

Variant	self-cleavage
A15U C29U U78C	0.38
A15U C32G U41C A45U U48A A65C	0.14
A15U C34G A64G U67C	0.03
A15U C34U A56G U58A	0.12
A15U C34U U58C A65G	0.06
A15U C38A A47G A57G U72C	0.15
A15U C38G U58C U69G	0.05
A15U C38U A45G U60C	0.81
A15U C40A U41C U74A	0.28
A15U C40U A56G A65G	0.23
A15U C44U U54A U76C	0.08
A15U C44U U54C	0.16
A15U C50G U54A G70A	0.12
A15U C62U U69A U72C	0.15
A15U C71U U74A	0.62
A15U G16A A65U	0.11
A15U G16A U25C	0.18
A15U G16A U41C G63U	0.32
A15U G16C A21G U31C U41C U76A	0.31
A15U G19A A28G U31C U43A	0.1
A15U G19A U43C	0.08
A15U G19A U80A	0.07
A15U G22A U26A A28U C39U A56U U60A	0.04
A15U G24A A28G U41C U72G U76G U80C	0.04

Variant	self-cleavage
A15U G24C U26A G33U A75U	0.03
A15U G30A A45U A47G U60A A77U	0.23
A15U G30A C37A U43A A57G U66A	0.06
A15U G30U G73C	0.11
A15U G30U U41C U43C U58A U69A U72G	0.04
A15U G30U U58C	0.07
A15U G33A U54A A75G	0.15
A15U G36C C40U U49A	0.28
A15U G42A U54A U60C A64C	0.07
A15U G42U U43C A45G U72C	0.07
A15U G46A U51G U78C	0.19
A15U G52U A75U U80C	1.14
A15U G53C A57G A65G U74C	0.39
A15U G55A U78A	0.32
A15U G61A C68A	0.18
A15U G63A A64G	0.08
A15U G63A U67C U72A	0.12
A15U G63C U66C U78A	0.11
A15U U25A C81A	0.1
A15U U25A U51C	0.14
A15U U25A U72A	0.13
A15U U25C A28U U31A U67C	0.07
A15U U25C A35G C38U U51A A57U	0.08
A15U U25C C29G A45G U80A	0.29

Variant	self-cleavage
A15U U25C C34G A35G	0.21
A15U U25C U26C A28G A64C	0.21
A15U U25C U26G A35U A45G U66C G73U	0.07
A15U U25G A28U	0.23
A15U U26A A28G A45G U60A U66C C68A	0.09
A15U U26A C29A U54C	0.07
A15U U26A C34G	0.23
A15U U26A U58C C62U	0.15
A15U U26A U67C	0.15
A15U U26A U67C U72C	0.12
A15U U26C A35G U58G U76A	0.74
A15U U26C A35U U54A A57G	0.06
A15U U26C C44U	0.22
A15U U26C U31C A35G G46U U80A	0.08
A15U U26C U41A U54A	0.18
A15U U26C U51C	0.11
A15U U26C U80A	0.71
A15U U31A A45U U54A U74A U78C	0.25
A15U U31A U60A A64G	0.14
A15U U31C A35U U41A A64G A65U	0.08
A15U U31C A45C U58C U69G U72G U74A	0.04
A15U U31C G36A C81A	0.11
A15U U31C G46A U69A	0.05
A15U U31C U43C A45G A57G A64G U80A	0.09

Variant	self-cleavage
A15U U31G U43C A56G	0.11
A15U U41A A45G U66A C68U U72C	0.29
A15U U41A A64U	0.1
A15U U41A G46C U76C	0.18
A15U U41A U43C U48C	0.38
A15U U41A U49A A57G U66C	0.05
A15U U41A U72G U76A	0.09
A15U U41C A77G	1.1
A15U U41C G42A U72G	0.13
A15U U41C U48C U60C U74A	0.12
A15U U41C U48C U72C	0.6
A15U U43A A57G	0.82
A15U U43C A45G U66C	0.15
A15U U43C A57G	0.12
A15U U48A U67C A75U	0.11
A15U U48C A56G U72C	0.16
A15U U48C A57G	0.89
A15U U48C U51C	0.27
A15U U49A U54C	0.33
A15U U49C G55C A65U U67A	0.14
A15U U49C U67C	0.13
A15U U49C U78C	0.15
A15U U49G G63A	0.12
A15U U51A U60A U80C	0.28

Variant	self-cleavage
A15U U51C A57G U78C	0.39
A15U U51G U54C	0.63
A15U U54C U66C U74C	0.15
A15U U54G A56U C62U U76C	0.12
A15U U54G U74C	0.98
A15U U58C A77G	0.38
A15U U58C U60C A64G	0.12
A15U U58C U76C A77U	0.27
A15U U66C A75G	0.18
A15U U66C U76C	0.29
A15U U67C G73A	0.12
A15U U72C U78C	0.78
A15U U74C A75C	1.17
G16A A18U U43C U48C U67C	0.06
G16A A20G A35G A47G	0.43
G16A A20U A28U A65G U80A	0.11
G16A A21G U26A A35G C40A	0.06
G16A A28G U31C C37G A47G U78C	0.11
G16A A35G A45G U49C A56G U74A U78C	0.84
G16A A35U A47C G52U G63A	0.17
G16A A35U A57U G70A	0.17
G16A A35U U51A A56G A65G U78A	0.06
G16A A45G U54A A65G U78C	0.13
